The values below come from publication PMC6161846.

Amino acid sequences for entries named in this document (tags omitted). A change or cut given only in a name is not applied to a line headed by its entry. Residues count along the entry.
UniProt P11940: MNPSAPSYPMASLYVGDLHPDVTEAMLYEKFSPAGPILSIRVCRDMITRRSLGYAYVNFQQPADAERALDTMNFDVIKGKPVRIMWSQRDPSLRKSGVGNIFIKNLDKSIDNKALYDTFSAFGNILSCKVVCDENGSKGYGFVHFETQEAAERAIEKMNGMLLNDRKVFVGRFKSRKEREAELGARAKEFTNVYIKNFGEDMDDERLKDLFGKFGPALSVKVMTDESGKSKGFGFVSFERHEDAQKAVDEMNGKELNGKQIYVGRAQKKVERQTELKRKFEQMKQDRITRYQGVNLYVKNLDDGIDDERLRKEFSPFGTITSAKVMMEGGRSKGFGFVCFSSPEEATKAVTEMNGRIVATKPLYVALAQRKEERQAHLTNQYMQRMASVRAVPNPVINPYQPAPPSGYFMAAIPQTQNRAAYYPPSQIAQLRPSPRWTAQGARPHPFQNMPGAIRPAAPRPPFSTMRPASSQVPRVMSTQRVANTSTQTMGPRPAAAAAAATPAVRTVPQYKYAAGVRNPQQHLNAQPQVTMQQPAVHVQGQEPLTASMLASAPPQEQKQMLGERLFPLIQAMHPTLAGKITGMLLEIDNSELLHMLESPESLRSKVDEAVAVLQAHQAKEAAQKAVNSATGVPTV
GAL4-/PABP fusion protein, PABP 1-192 (human (cDNA from chondrocytes)): residues 1-192 of P11940
GAL4-/PABP fusion protein, PABP 182-371 (human (cDNA from chondrocytes)): residues 182-371 of P11940
GAL4-/PABP fusion protein, PABP 392-636 (human (cDNA from chondrocytes)): residues 392-636 of P11940
GAL4-/PABP fusion protein, PABP 392-553 (human (cDNA from chondrocytes)): residues 392-553 of P11940

For experiment [1], the target named is T1, recombinant ADAM15 cytoplasmic domain (cytoADAM) (UniProt Q13444).
T1 sequence: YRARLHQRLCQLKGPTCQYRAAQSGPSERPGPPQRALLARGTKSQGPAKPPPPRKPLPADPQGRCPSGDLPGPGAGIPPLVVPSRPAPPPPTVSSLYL
The experiment in a line: ELISA; cytoplasmic domain of ADAM15 coated on a 96-well plate (100 ng/100 μl in PBS), blocked with 1% BSA; GST-tagged PABP domains at 500 nM, 1 h at room temperature; HRP anti-GST, ABTS, OD at 405 nm; both purified.

Experiment [2] addresses T1, recombinant ADAM15 cytoplasmic domain (cytoADAM). The experiment in a line: ELISA; cytoADAM15 immobilised; GST-PABP fragment at 0–500 nM, otherwise the same conditions as the single-concentration assay; both purified. (In general: In an ELISA, binding on a coated surface is turned into a signal by an enzyme label.)
Experiment [3] concerns the target GAL4-/PABP fusion protein, PABP 1-192 (human (cDNA from chondrocytes)) (UniProt P11940). In words: two-hybrid; mammalian two-hybrid (Stratagene kit) in HEK 293 cells: PABP fragments in the pCMV-BD bait vector (GAL4 DNA-binding domain), cytoplasmic tail of ADAM15 in the pCMV-AD prey vector (NFκB transactivation domain), firefly luciferase reporter read after 48 h, normalised to Renilla luciferase.

In experiment [4] the target is GAL4-/PABP fusion protein, PABP 182-371 (human (cDNA from chondrocytes)) (UniProt P11940). The experiment is described as above.
For experiment [5], the target named is GAL4-/PABP fusion protein, PABP 392-553 (human (cDNA from chondrocytes)) (UniProt P11940). Described as above.
In experiment [6] the target is GAL4-/PABP fusion protein, PABP 392-636 (human (cDNA from chondrocytes)) (UniProt P11940). The description is as above.

Results are given in words; binding and its absence hold for the method and conditions named. Some binding calls cover weakened binding; strength is not graded here. For some of these results: Sequences can lack the tags named with a protein.

As to “GST-tagged PABP fragment 1-192 (RRM1 and 2) (from UniProt P11940 1-192) (domain or fragment)”, in experiment [1], the binding result is “no binding (tested: 500 nM)”.
Take “GST-tagged PABP C-terminal PABC domain (553-636) (from UniProt P11940 553-636) (domain or fragment)”: the binding result in experiment [2] and in experiment [1] was “no binding (tested: 500 nM)” each time.

B1: NFκB/cytoADAM fusion protein (cytoplasmic tail of ADAM15 in the pCMV-AD prey vector) (domain or fragment, UniProt Q13444-2 717-814)
chain: YRARLHQRLCQLKGPTCQYRAAQSGPSERPGPPQRALLARGTKSQGPAKPPPPRKPLPADPQGRCPSGDLPGPGAGIPPLVVPSRPAPPPPTVSSLYL
Take B1: the binding result in experiment [3] was “no binding”; in experiment [4], “no binding”; in experiment [5], “binds”; in experiment [6], “binds”.
